Experimental data published in PMC4574297, “A mitochondria-anchored isoform of the actin-nucleating spire protein regulates mitochondrial division” (eLife, 2015).

Biological target: T1, INF2-CT, the C-terminal half of inverted formin 2 (amino acids 469-1249, containing FH1, FH2 and C-terminal … (human, UniProt Q27J81 469-1249))
T1 construct: inverted formin 2 (INF2), residues 469-1249, FH1, FH2 and C-terminal regions; also called C-terminal half of INF2; source: purified as described (Ramabhadran et al., 2012)
T1 sequence (Q27J81 469-1249): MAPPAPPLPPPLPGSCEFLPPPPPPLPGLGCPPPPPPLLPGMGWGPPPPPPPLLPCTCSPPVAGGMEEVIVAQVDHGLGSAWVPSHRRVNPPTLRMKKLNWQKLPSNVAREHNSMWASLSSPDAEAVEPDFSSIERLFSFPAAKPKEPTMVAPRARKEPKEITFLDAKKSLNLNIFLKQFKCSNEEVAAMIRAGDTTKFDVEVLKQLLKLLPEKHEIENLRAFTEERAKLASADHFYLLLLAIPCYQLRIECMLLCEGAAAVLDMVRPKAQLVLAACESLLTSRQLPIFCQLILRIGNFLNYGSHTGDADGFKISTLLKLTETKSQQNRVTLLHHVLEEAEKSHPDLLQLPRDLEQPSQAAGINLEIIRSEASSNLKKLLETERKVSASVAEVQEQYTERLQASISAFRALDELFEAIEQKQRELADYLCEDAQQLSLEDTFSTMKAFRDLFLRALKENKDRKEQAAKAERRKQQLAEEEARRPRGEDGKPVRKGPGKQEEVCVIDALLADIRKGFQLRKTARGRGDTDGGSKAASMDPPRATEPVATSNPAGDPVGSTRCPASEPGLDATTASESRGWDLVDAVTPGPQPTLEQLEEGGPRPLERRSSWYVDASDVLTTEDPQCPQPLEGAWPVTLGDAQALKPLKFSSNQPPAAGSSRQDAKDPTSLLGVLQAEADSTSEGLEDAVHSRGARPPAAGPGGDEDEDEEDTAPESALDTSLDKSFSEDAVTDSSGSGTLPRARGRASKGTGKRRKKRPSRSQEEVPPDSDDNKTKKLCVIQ
Test: pull-down; 20 μM GST or GST-Spire1 KIND bound to glutathione-sepharose beads; 1 μM INF2-CT and/or 10 μM INF2-NT; binding buffer 50 mM KCl, 1 mM MgCl2, 1 mM EGTA, 10 mM Hepes-HCl pH 7.4, 1 mM DTT, 0.02% thesit; incubated overnight, washed once; SDS-PAGE of the pellet
Settings: both partners purified

B1: INF2-NT, the N-terminal half of inverted formin 2 ([…], containing DID and dimerization region) (domain or fragment)
chain: not shown
notes: inverted formin 2 (INF2), […], DID and dimerization region; also called N-terminal half of INF2; source: purified as described (Ramabhadran et al., 2012)
Question: Does B1 bind?
Answer: binds
